This passage reports amyloid nucleation score results from the supplement of paper PMC12067230.

Single values of this set are uncertain.
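Further: [psi-pin-] Saccharomyces cerevisiae expressing SupN fusions, induced by 100 µM Cu2SO4, selected 7 d at 30 °C without adenine and uracil, scored by deep sequencing of output versus input.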

One data set is described as follows: amyloid nucleation score relative to library mode (yeast Sup35 reporter selection) (log enrichment difference); higher = more amyloid nucleation; sequences are the first 22 residues of the Bri2 peptide extended by up to 12 random residues. As to conditions: random library (experiment): 1;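 active = nucleation score significantly above 0 at FDR 0.05; inactive = not significantly above 0 or absent from output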.
In turn, EASNCFAIRHFENKFAVETLICLWKSGSQHVFVM showed an amyloid nucleation score of 0.498.
Turning to EASNCFAIRHFENKFAVETLICLWKTVRQQCRYT, the amyloid nucleation score result was “inactive”.
On the same count and under the same terms, with EASNCFAIRHFENKFAVETLICLWKVGGGMSLAW the figure was -0.195; with EASNCFAIRHFENKFAVETLICLWKWRGKGTAEG, 0.335.
On to EASNCFAIRHFENKFAVETLICLWLAVVSSSMGE, for which the amyloid nucleation score result was “inactive”.
EASNCFAIRHFENKFAVETLICLWLCVMSVGCNR: the amyloid nucleation score turned out to be 3.75.
With EASNCFAIRHFENKFAVETLICLWRCNGIFANRV, the amyloid nucleation score entry was “inactive”.
For EASNCFAIRHFENKFAVETLICLWSAERKASETA, the amyloid nucleation score entry is “inactive”.
With EASNCFAIRHFENKFAVETLICLWSWPRPFERPE, the amyloid nucleation score was 1.12.
EASNCFAIRHFENKFAVETLICLWT yielded an amyloid nucleation score of 1.82.
On the same count and under the same terms, with EASNCFAIRHFENKFAVETLICLWTGVRVPLSSW the entry was “inactive”.
Same read-out and setting: the same measure for EASNCFAIRHFENKFAVETLICLWVKAVSQWYAP: “inactive”; for EASNCFAIRHFENKFAVETLICLWVSP: “inactive”; for EASNCFAIRHFENKFAVETLICLWVVWVVHVKPG: “inactive”.
Still for that read-out and setting: with EASNCFAIRHFENKFAVETLICLWW the figure was 4.2; with EASNCFAIRHFENKFAVETLICLWWVRLVDDFLW, “inactive”.
Consider EASNCFAIRHFENKFAVETLICLYARQKWPWLPK, for which the amyloid nucleation score result is “inactive”.
Sequence EASNCFAIRHFENKFAVETLICLYASLGGPEAWQ returned an amyloid nucleation score of 7.79.
On the same count and under the same terms, with EASNCFAIRHFENKFAVETLICLYCAHSEKRVLE the figure was 0.413; with EASNCFAIRHFENKFAVETLICLYCGNPFVWRDG, 8.62; with EASNCFAIRHFENKFAVETLICLYCVRNAQNSRS, 4.79.
With EASNCFAIRHFENKFAVETLICLYDDSV, the amyloid nucleation score result was “inactive”.
On to EASNCFAIRHFENKFAVETLICLYEWMGTLHRR, for which the amyloid nucleation score result was “inactive”.
Still for that read-out and setting: the same measure for EASNCFAIRHFENKFAVETLICLYFGHGLLAMSQ: “inactive”.
Still for that read-out and setting: with EASNCFAIRHFENKFAVETLICLYFSFD the figure was 2.12; with EASNCFAIRHFENKFAVETLICLYGIGNVKEGCS, 5.59; with EASNCFAIRHFENKFAVETLICLYGLSSRVVYWS, “inactive”.
The same measure, in the same setting: with EASNCFAIRHFENKFAVETLICLYIFPHHLGPLR the entry was “inactive”.
On to EASNCFAIRHFENKFAVETLICLYKQNHWKSYRT, for which the amyloid nucleation score was 3.09.
For the sequence EASNCFAIRHFENKFAVETLICLYKRWETVRSAS, the amyloid nucleation score entry is “inactive”.
Same read-out and setting: the same measure for EASNCFAIRHFENKFAVETLICLYLRYRGPACNI: “inactive”; for EASNCFAIRHFENKFAVETLICLYQARTARVVFH: “inactive”.
Same read-out and setting: the same measure for EASNCFAIRHFENKFAVETLICLYRELNLRGGQQ: “inactive”.
Sequence EASNCFAIRHFENKFAVETLICLYRIKIDFVGTR registered an amyloid nucleation score of 2.73.
The same measure, in the same setting: the same measure for EASNCFAIRHFENKFAVETLICLYRQRLEVVWQV: “inactive”; for EASNCFAIRHFENKFAVETLICLYS: “inactive”.
Sequence EASNCFAIRHFENKFAVETLICLYSGPQGEPGHK displayed an amyloid nucleation score of 3.51.
As to EASNCFAIRHFENKFAVETLICLYSRLYNVTIYW, the amyloid nucleation score entry is “inactive”.
In the case of EASNCFAIRHFENKFAVETLICLYTFNGNGGFDV, the amyloid nucleation score entry was “inactive”.
EASNCFAIRHFENKFAVETLICLYVLRAGLLSLQ: the amyloid nucleation score entry is “inactive”.
With EASNCFAIRHFENKFAVETLICLYVSRYSYGWMV, the amyloid nucleation score entry is “inactive”.
The same measure, in the same setting: the same measure for EASNCFAIRHFENKFAVETLICLYWNKREKCRGV: “inactive”; for EASNCFAIRHFENKFAVETLICLYY: 2.62.
On to EASNCFAIRHFENKFAVETLICLYYWIQERWHSW, for which the amyloid nucleation score entry is “inactive”.
On the same count and under the same terms, the same measure for EASNCFAIRHFENKFAVETLICMA: “inactive”; for EASNCFAIRHFENKFAVETLICMACYSGYLFLWY: “inactive”.
The sequence EASNCFAIRHFENKFAVETLICMAFHGV came in with an amyloid nucleation score of 6.29.
As to EASNCFAIRHFENKFAVETLICMAGVCHRFLCKS, the amyloid nucleation score entry is “inactive”.

The same data set, now with this note: random library (experiment): 2.
Regarding EASNCFAIRHFENKFAVETLICLWNVKARLVAW, the amyloid nucleation score entry is “inactive”.
EASNCFAIRHFENKFAVETLICLWPYTKWIHCFF: the amyloid nucleation score result is “inactive”.
Consider EASNCFAIRHFENKFAVETLICLWQKLVTIHL, for which the amyloid nucleation score entry was “inactive”.
Still for that read-out and setting: the same measure for EASNCFAIRHFENKFAVETLICLWTLFLSNKSRS: “inactive”; for EASNCFAIRHFENKFAVETLICLWTPMDDRRYSL: 4.75; for EASNCFAIRHFENKFAVETLICLWYCARPRPCRG: -0.344.
As to EASNCFAIRHFENKFAVETLICLWYVWTGIYREC, the amyloid nucleation score entry is “inactive”.
On the same count and under the same terms, the same measure for EASNCFAIRHFENKFAVETLICLY: “inactive”; for EASNCFAIRHFENKFAVETLICLYAAVMSVFTSL: -0.278; for EASNCFAIRHFENKFAVETLICLYCRVSARSGRG: -0.351.
On the same count and under the same terms, with EASNCFAIRHFENKFAVETLICLYCTCY the figure was 6.46; with EASNCFAIRHFENKFAVETLICLYDIA, “inactive”; with EASNCFAIRHFENKFAVETLICLYFRFCSVRSNS, “inactive”.
Turning to EASNCFAIRHFENKFAVETLICLYFTSTR, the amyloid nucleation score entry is “inactive”.
On to EASNCFAIRHFENKFAVETLICLYG, for which the amyloid nucleation score entry is “inactive”.
Regarding EASNCFAIRHFENKFAVETLICLYHCDKSSFRSM, the amyloid nucleation score is 4.29.
On to EASNCFAIRHFENKFAVETLICLYIVLRRYVVVL, for which the amyloid nucleation score entry is “inactive”.
The same measure, in the same setting: with EASNCFAIRHFENKFAVETLICLYLLIDAGLVFC the entry was “inactive”; with EASNCFAIRHFENKFAVETLICLYLRIKKVNLHG, “inactive”; with EASNCFAIRHFENKFAVETLICLYMAWVSNRCIG, “inactive”.
The same measure, in the same setting: with EASNCFAIRHFENKFAVETLICLYMNSDFLGCRC the figure was 5.4; with EASNCFAIRHFENKFAVETLICLYMPHSSHYPYR, 6.28.
Still for that read-out and setting: with EASNCFAIRHFENKFAVETLICLYMSGLDLCFMT the entry was “inactive”; with EASNCFAIRHFENKFAVETLICLYQMCLGYFVYW, “inactive”.
Regarding EASNCFAIRHFENKFAVETLICLYRCHLRGSRIQ, the amyloid nucleation score result was “inactive”.
Still for that read-out and setting: with EASNCFAIRHFENKFAVETLICLYSLHLRIAFPG the entry was “inactive”; with EASNCFAIRHFENKFAVETLICLYTSYAFNQHSV, “inactive”; with EASNCFAIRHFENKFAVETLICLYVLCTVELYHV, “inactive”.
Same read-out and setting: the same measure for EASNCFAIRHFENKFAVETLICLYVTHPGFGNWR: “inactive”; for EASNCFAIRHFENKFAVETLICLYWTLGRKLVWL: -0.104; for EASNCFAIRHFENKFAVETLICLYWYG: 2.6.
The same measure, in the same setting: with EASNCFAIRHFENKFAVETLICMAIEPVCLDMIR the figure was 4.32; with EASNCFAIRHFENKFAVETLICMAIYYNSRKLSR, “inactive”.

Still in this data set, the particulars now being: random library (experiment): 3.
As for EASNCFAIRHFENKFAVETLICLWSGQELTAPVV, the amyloid nucleation score result is “inactive”.
As for EASNCFAIRHFENKFAVETLICLWSH, the amyloid nucleation score was found to be 1.49.
EASNCFAIRHFENKFAVETLICLWVFVGTAFMLG: the amyloid nucleation score result is “inactive”.
The same measure, in the same setting: with EASNCFAIRHFENKFAVETLICLWVKMNRAGARA the entry was “inactive”; with EASNCFAIRHFENKFAVETLICLWVRSLWMRPDA, “inactive”; with EASNCFAIRHFENKFAVETLICLWWVGPGGVWMH, “inactive”.
In the case of EASNCFAIRHFENKFAVETLICLWWWSVQEGSLG, the amyloid nucleation score is 0.566.
Turning to EASNCFAIRHFENKFAVETLICLYCGACCQCKNR, the amyloid nucleation score amounted to 8.79.
Same read-out and setting: the same measure for EASNCFAIRHFENKFAVETLICLYCRVKGAPGVA: “inactive”; for EASNCFAIRHFENKFAVETLICLYGRLDTEWWVR: “inactive”; for EASNCFAIRHFENKFAVETLICLYHHGSFRLLPQ: “inactive”.
The same measure, in the same setting: with EASNCFAIRHFENKFAVETLICLYLRMFFEGSLS the entry was “inactive”; with EASNCFAIRHFENKFAVETLICLYLSAYFEFCWH, “inactive”.
EASNCFAIRHFENKFAVETLICLYMWYA: the amyloid nucleation score entry was “inactive”.
As to EASNCFAIRHFENKFAVETLICLYPKVIVAFAYG, the amyloid nucleation score result was “inactive”.
The same measure, in the same setting: with EASNCFAIRHFENKFAVETLICLYPPWEPGEYLP the figure was 7.04.
With EASNCFAIRHFENKFAVETLICLYRGLRLVAGGL, the amyloid nucleation score entry is “inactive”.
The same measure, in the same setting: the same measure for EASNCFAIRHFENKFAVETLICLYSRSLVKCLLG: “inactive”.
Still for that read-out and setting: the same measure for EASNCFAIRHFENKFAVETLICLYSVRTIRRIQW: “inactive”; for EASNCFAIRHFENKFAVETLICLYSYAM: “inactive”; for EASNCFAIRHFENKFAVETLICMAHWHGMGISVY: -0.444.
